# Some of the results follow. These are enrichments in a pooled selection; single values are uncertain.
# Test system: SARS-CoV-2 3CLpro (nsp5)
# Assay: substrate phage enrichment score (protease-eluted vs HEPES control, +1 offset) (ratio); higher = better cleaved substrate
# Conditions: selection round: 3; protease elution time: 0.5 h
# Method: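 Random heptapeptide substrate phage display (M13 pIII fusion, heptapeptide between an N-terminal biotinylated AviTag GLNDIFEAQKIEWHE and pIII; phages immobilised on streptavidin) eluted by cleavage with 50 nM protease in 20 mM HEPES at 37 °C. Selected phages were NGS sequenced, and the enrichment score is (reads in protease sample + 1)/(reads in HEPES blank-selection control + 1).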
row,Substance,substrate phage enrichment score
1,GAAAQHH,0.833
2,TQLQGFQ,> 25
3,CKTKCAL,2.91
4,CVCRLFV,> 25
5,SAAAPHH,1.06
6,QENKLPG,> 25
7,LTLEHSN,7.33
8,VEAAHHH,1.17
9,ERHCRAY,> 34
10,HPGVEDG,15
11,CRWPVKS,6
12,NSQDARA,3.44
13,PANSTLQ,14.5
14,RASVRLT,> 44
15,TRRTTLQ,> 145
16,EHDLKPL,18
17,ELTNESN,3.09
18,VYNLKSN,> 43
19,QGHHVSC,> 80
20,TTTHMNL,7.67
21,GQPCIYS,2.25
22,ITSPAGM,3.12
23,LNKLQSN,> 21
24,ASESSLQ,9.43

row,Substance,substrate phage enrichment score
1,KPRIEQE,> 30
2,TADNPPE,> 27
3,AAHHHHH,0.777
4,VLYFQGG,2.22
5,CGVRTGG,2
6,THNERGR,11.2
7,CRTYMTT,1.17
8,MRRPIAQ,1.89
9,LPGNQRG,> 69
10,PTTNSMQ,> 24
11,CSYDGRQ,> 27
12,VTLQAGI,> 22
13,NTITVMG,1
14,AKSWDGS,9.33
15,SNIKAQC,10.5
16,EVHVMCN,> 28
17,ARVRLQS,32.7
18,MPLRAAQ,1.3
19,AQAAHHH,1.44
20,NEPITFR,> 25
21,PASPVLQ,> 207
22,NNCVNDR,> 21
23,LQGGASG,> 23
24,NELTLDP,6.2

row,Substance,substrate phage enrichment score
1,SEQVTLQ,> 104
2,KESDKET,> 22
3,HKPFGSR,0.733
4,ISKLQSG,> 42
5,FHHHHGA,2.12
6,GNCHKET,1.15
7,FRESEEN,6.6
8,SRQYFQG,> 24
9,HEAAHHH,0.921
10,SCTRWSC,> 24
11,VTPRCLK,0.421
12,AQGNAVC,0.923
13,TSAHHHH,0.812
14,EGAHAPW,1.85
15,SCNGIGS,10.5
16,RLAAHHH,2.83
17,PIERFDT,0.5
18,SVAAHHH,1.05
19,SQRSLAP,3.83
20,THRGNLD,6.33
21,VVHESLS,> 30
22,AHLKSHN,> 22
23,VTISRQG,> 31
24,RTGLNTS,8

row,Substance,substrate phage enrichment score
1,APVRLQS,101
2,HNHHHGA,0.714
3,NVQLQAS,> 84
4,PSYELKA,> 29
5,ANAAAHH,0.304
6,QRCNAAA,> 23
7,DHVTILQ,21.5
8,QHNNLSR,16
9,PRMYTNP,0.696
10,SLNVLSR,3.53
11,PYSWQQR,0.909
12,TQDGGGT,> 28
13,HCGPVVN,2.47
14,AERNTIC,> 45
15,QTFCRSR,> 54
16,LCRDRCM,5.25
17,AHESGAI,7.67
18,LSRQNTR,> 29
19,RHVSKAG,17.5
20,TCIMQSQ,> 26
21,VQVRLQS,> 38
22,HEPTLPT,> 35
23,LYFQGGS,1.56
24,ETDGISN,1.64

row,Substance,substrate phage enrichment score
1,PMAAHHH,1.1
2,GNRTKLQ,> 26
3,SPTWVEP,> 25
4,LPKTCEN,5.25
5,QLYFQGG,1.05
6,ACSYLIP,> 28
7,FAAAHHH,0.971
8,LNTRPNH,> 22
9,PTPLLSG,> 38
10,SYETNRN,3.36
11,TYTSGSN,> 40
12,ACTLNRG,1.44
13,SCAPTRE,> 25
14,KPVQLQS,56.5
15,CAAAHQH,0.715
16,MPAAHHH,1.18
17,SAAPQHH,2
18,PKRGKTM,1.6
19,DAHDDYR,2.88
20,KEQAGKI,7.67
21,ICHSELQ,> 22
22,EIRGFYD,2.15
23,LRNWHST,1.44
24,GRTSQLQ,> 43

row,Substance,substrate phage enrichment score
1,APAGSRT,2.22
2,SHVGSCR,> 23
3,SCILQAR,12.7
4,CYSPYEW,13.5
5,NRAGQYG,1.77
6,VLREPVG,2.29
7,CQPNMFM,14
8,ERSPALG,1.27
9,LNGTINR,1.8
10,KELTAGT,4.38
11,RTAAHHH,0.942
12,SAAAHYH,1.6
13,DYRPSKT,12
14,PRSVNDS,0.833
15,VRHDVIV,4.5
16,RLQSGNR,> 55
17,CSAAHHH,0.759
18,ISEPQAW,1.24
19,SEEGVLY,0.5
20,DSWQLRN,> 34
21,EAKCAFG,> 42
22,PALQSGS,> 53
23,YQKSTLQ,65.2
24,PSIPLNP,6.77

row,Substance,substrate phage enrichment score
1,VGMQGRC,3.67
2,QPIMRWP,11
3,ATRALLQ,> 173
4,PNLQGGS,3.33
5,SRAHCAR,> 21
6,CPSQKHH,7
7,YLREPER,> 36
8,RCTVLQS,8
9,WPMCFPP,> 21
10,RPHIIIT,1.29
11,GISQGAL,> 160
12,NTWQDFT,7.75
13,RSAAAHH,0.763
14,AMSESQC,> 23
15,FSKPATV,> 25
16,QGYEPVQ,6
17,CFYPELQ,> 29
18,LQSRTDT,> 26
19,VQYFQGG,1.7
20,KKNYNEQ,1.23
21,PYCCARN,1.3
22,SKSSYMG,3.17
23,TWMTQLQ,> 21
24,PSAHHHH,0.474

row,Substance,substrate phage enrichment score
1,DSAAHHH,0.359
2,AWHESGT,1.88
3,AKRDTEI,> 28
4,KRQYLQP,> 21
5,RASKIGI,> 23
6,AHAGWHK,0.692
7,KAAAHHH,1.47
8,CRQQARS,> 23
9,STCGPKG,> 25
10,VPRDLRQ,1.95
11,SDTRMNR,13
12,NELTPAK,> 23
13,VMMIVCG,0.467
14,WRQPSQR,1.18
15,QRNQWYQ,11
16,LNYYKRD,1.55
17,ASGTGVS,> 29
18,AEQQRLQ,2.44
19,WQYNTYG,2.24
20,RCYSTLQ,> 74
21,WPAAHHH,2.21
22,SRPHIII,0.571
23,RVSIRCR,> 23
24,ERKPCGL,0.16

row,Substance,substrate phage enrichment score
1,TDCPPGK,1.75
2,PHFQGGS,1.69
3,HHHHHGA,0.479
4,KGCLLTR,> 33
5,IRPVCEK,> 32
6,DGARRDG,1.07
7,YLIQCEQ,> 21
8,CGAGQSP,> 30
9,RSAAHHH,1.02
10,LSPPKCA,> 25
11,GLRYLGA,1.89
12,VRNTSKV,1.76
13,LLRPTSG,> 21
14,VTNPSFQ,3.62
15,LCFQGGS,0.769
16,RSRLITN,11
17,IRAAHHH,0.864
18,TGVVPRA,10
19,PEHSMLQ,> 83
20,QDARHCR,7.67
21,PDEGTDL,> 26
22,TEHNGTR,> 30
23,PATILMS,> 65
24,AKAAHHH,1.27

row,Substance,substrate phage enrichment score
1,TCLQSCV,40.1
2,RQSFEQR,5
3,PSGAAHH,3.1
4,FQGGSAA,1.33
5,PRSVHLQ,33
6,RACRLLR,1.6
7,VQPILDR,5.75
8,LTADTAV,3.83
9,TNELSVQ,> 28
10,RGGSAAA,1.3
11,CAAAPHH,1.05
12,VGRPCST,2.67
13,PMHPVQH,0.0652
14,TADTGTR,18.5
15,VTAAHHH,1.18
16,IATPMPD,1.5
17,KRGSAAA,46.5
18,LPRESGG,27

# — the supplement of paper PMC10185492
